Results from patent publication US9828589B2, “Acyltransferases and uses thereof in fatty acid production” (priority 2009, dated 2017).

System: yeast mutant lacking the capability to synthesis TAG
Assay: DGAT activity assay (formation of triacylglycerole)
Details: TLC, FIG. 4

B1: DGAT_13152-mod(Pi): acyltransferase from Phythophtora infestance, 516 amino acids, SEQ-ID 36, encoded by SEQ-ID 35 (protein)
chain: MDVENSLLTRLAANGPTMSDAPMLLMAVVLVLALSGVVSTVSQQRQKPSEDETLQGRKLTRKLSSMGLSTLVTETPTNLSIPVSVLTVEGHLAKEDYVERLRARILHDAFFLRWRSVVRGDYKTGVYKYVEVPGYDVAQNVVEHTVEEGETTMSYVESALVNTPLDFDKPLWEMHVIHDPKGNPGNTSVGWKVHHCLGDGASLATAMAKLSDQSELFDAMVEKRLQAKKSPKTPKPRKPVTQIIKDILVFLYVCIWSVYVISYHMFALVTRREPATVFKRPGGKQKRLSYNMIYSVNATKAVGKHFRATVNDVMLNVVAGAMRKTMLSVGESVAPTLKVRCAIPVDMRSSTEVIRHTSNRFSSLVIDLPIGVEDSAQRLLQVTAAMNDAKNSLEKFFVYWSTHLVSMLPAPLMRLIVHFTTSRISVATSNVRASVVEVSLCKSPVSGFYGFVPPPPYVNLGVAILSMGDDLGLNVLVDPCVGVNAKQFLEFAKEEFTALQESVAAMEANAGDKKTK
modifications: Phythophtora infestance
In the case of B1, the “DGAT activity (formation of triacylglycerole, TAG)” value is reported as “having DGAT activity” and the “DGAT activity (formation of triacylglycerole, TAG)” value (listed as DGAT2_13152 (Pi)) is reported as “have DGAt activity”.
